# Assay results: the antibiotic and cytotoxicity screens of Wong et al. (2023)
# This is one part of the list.
# Test system: HSkMC (human skeletal muscle cells)
# Experiment: cytotoxicity call (relative viability < 0.9)
# Conditions: 10 µM
row,Compound,cytotoxicity call
1,COc1ccc(NC(=O)O[C@H]2[C@@H]3OC(=O)[C@H](Cc4cccc(Br)c4)C/C=C/C[C@@H](Cc4cccc(Br)c4)C(=O)O[C@H]3[C@@H](OC)O[C@@H]2CO)cc1,inactive
2,C[C@@H]1CN([C@H](C)CO)C(=O)c2cc(NC(=O)NC3CCCCC3)ccc2O[C@@H](C)CCCCO[C@H]1CN(C)C(=O)c1ccccc1,inactive
3,C[C@H](CO)N1C[C@H](C)[C@H](CN(C)C(=O)Nc2ccc3c(c2)OCCO3)OCc2cn(nn2)CCCC1=O,inactive
4,C[C@H](CO)N1C[C@H](C)[C@H](CN(C)C(=O)Nc2cccc3ccccc23)OCCCC[C@H](C)Oc2ccc(NS(C)(=O)=O)cc2C1=O,inactive
5,C[C@H](CO)N1C[C@H](C)[C@H](CN(C)S(C)(=O)=O)Oc2cc(C#Cc3ccccc3)ccc2S1(=O)=O,inactive
6,CNC(=O)CN(C#N)c1nc(N(C)C)nc(N(C)C)n1,inactive
7,COC(=O)[C@@H](N)Cc1ccc(-n2cc(CCC(=O)NO)nn2)cc1,inactive
8,CCC(C)C(=O)OC1CCC=C2C=CC(C)C(CCC3CC(O)CC(=O)O3)C21 (stereo unspecified),inactive
9,CCOC(=O)CCC(=O)OC1C(OC2C(C)C(OC3CC(C)(OC)C(O)C(C)O3)C(C)C(=O)OC(CC)C(C)(O)C(O)C(C)C(=O)C(C)CC2(C)O)OC(C)CC1N(C)C (stereo unspecified),inactive
10,C[C@@H]1CN([C@@H](C)CO)C(=O)Cc2cc(NS(C)(=O)=O)ccc2O[C@@H]1CN(C)Cc1ccc(C(F)(F)F)cc1,inactive
11,N[C@@H](C(=O)N[C@@H]1C(=O)N2C(C(=O)O)=C(Cl)CS[C@H]12)c1ccccc1,inactive
